Consider 21 molecules from the supplement of paper PMC11369174, “Proteome-scale characterisation of motif-based interactome rewiring by disease mutations” (Molecular Systems Biology, 2024).

What all share (experiment): mutation enrichment score (mutant vs wild-type peptide binding to bait); baits are purified protein domains named by gene / domain / UniProt id / residues; peptides come from disordered regions of human proteins; higher = mutation enhances binding relative to wild type
One test concerns the target T1, IRS2_PTB__Q9Y4H2_188_304.
T1 chain: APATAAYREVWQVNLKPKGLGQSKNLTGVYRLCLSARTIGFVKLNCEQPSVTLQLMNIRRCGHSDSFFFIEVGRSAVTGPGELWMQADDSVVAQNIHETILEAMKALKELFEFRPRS
The following applies: paper call: no_effect, wild-type window: ….

The target in a further test is T2, GGA3_VHS__Q9NZ52_1_166.
T2 chain: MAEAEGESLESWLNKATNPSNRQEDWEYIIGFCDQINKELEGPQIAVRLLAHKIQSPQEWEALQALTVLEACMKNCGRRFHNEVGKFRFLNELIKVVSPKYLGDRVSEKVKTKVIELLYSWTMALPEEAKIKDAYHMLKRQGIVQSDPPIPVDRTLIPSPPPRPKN
As to conditions: wild-type window: ….

Test [1] deals with T3, GRAP2_SH3_2_O75791_274_329.
T3 chain: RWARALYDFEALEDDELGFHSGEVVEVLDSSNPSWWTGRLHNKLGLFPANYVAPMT
As to conditions: wild-type window: ….

Test [2] has as its target Intersectin-1_SH3_2_Q15811_913_971. The following applies: number of wild-type / mutant comparisons summed (bounds the score): 12; paper call: no_effect; wild-type window: ….
The next test has as its target T4, GGA1_VHS__Q9UJY5_1_157.
T4 chain: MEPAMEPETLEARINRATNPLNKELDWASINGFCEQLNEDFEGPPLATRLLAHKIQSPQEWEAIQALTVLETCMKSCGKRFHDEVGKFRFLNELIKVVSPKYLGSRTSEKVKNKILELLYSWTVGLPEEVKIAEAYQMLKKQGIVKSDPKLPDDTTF
The following applies: wild-type window: ….

In test [3] the target is Intersectin-1_SH3_1_Q15811_740_806. As to conditions: number of wild-type / mutant comparisons summed (bounds the score): 6; paper call: no_effect; wild-type window: ….
For test [4], the target named is Intersectin-1_SH3_3_Q15811_1002_1060. As to conditions: number of wild-type / mutant comparisons summed (bounds the score): 6; paper call: no_effect; wild-type window: ….
Test [5] concerns the target Intersectin-1_SH3_5_Q15811_1155_1214. The following applies: number of wild-type / mutant comparisons summed (bounds the score): 6; paper call: no_effect; wild-type window: ….
In another test the target is SNX9_SH3_1_Q9Y5X1_3_61. The following applies: number of wild-type / mutant comparisons summed (bounds the score): 6; paper call: no_effect; wild-type window: ….
The next test addresses Src_SH3__P12931_87_144. As to conditions: number of wild-type / mutant comparisons summed (bounds the score): 6; paper call: no_effect; wild-type window: ….
Another test addresses T5, PIK3R1_SH3_1_P27986_6_78.
T5 chain: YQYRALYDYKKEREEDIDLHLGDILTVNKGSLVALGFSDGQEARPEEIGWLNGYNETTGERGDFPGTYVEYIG
The following applies: number of wild-type / mutant comparisons summed (bounds the score): 9, wild-type window: ….

Another test has as its target REPS1___Q96D71_226_314. As to conditions: number of wild-type / mutant comparisons summed (bounds the score): 6; paper call: no_effect; wild-type window: ….
Test [6] addresses NEDD4_WW_2_P46934_765_803. As to conditions: number of wild-type / mutant comparisons summed (bounds the score): 6; paper call: no_effect; wild-type window: ….
Where [7] appears, read: number of wild-type / mutant comparisons summed (bounds the score): 6.
Setting [8] is: number of wild-type / mutant comparisons summed (bounds the score): 6, paper call: no_effect.
Where [9] appears, read: number of wild-type / mutant comparisons summed (bounds the score): 10, paper call: enhanced.

Some of the results follow. The data scatter; read single values as rough.

Chain of SNX9_SH3_1_Q9Y5X1_3_61 (chain, as listed by the source): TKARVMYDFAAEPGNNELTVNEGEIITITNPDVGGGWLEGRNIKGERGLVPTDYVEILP
Chain of NEDD4_WW_2_P46934_765_803 (chain, as listed by the source): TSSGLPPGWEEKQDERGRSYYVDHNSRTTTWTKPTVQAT

Turning to DMFNFETFGNSMICLFQITTFAGWDGLLAPILNSKPPDCDP [S1723F S1723F], in the test with IRS2_PTB__Q9Y4H2_188_304 (setting [7]), the mutation enrichment score was 5.

In the case of MPTVISASVAPRTAAEPRSPEPVPHPAQSKATEAGGGNPSG [G21E G21E], the mutation enrichment score in the test with GGA3_VHS__Q9NZ52_1_166 (setting [8]) was -1.

As to LAQQWDQLDQLGMRMQHNLEEQIQARNTTGVTEEALKEFSM [Q2310E Q2310E], the mutation enrichment score in [1] (setting [8]) was -2.

Take KNVKVNFDNVGFGYLSLLQVDTFKGWMDIMYAAVDSRNVEL [A1429D A1429D]: in the test with GGA3_VHS__Q9NZ52_1_166 (setting [8]), the mutation enrichment score came out at 5.

With IQPSDCHTTVRPAKPPVVDRYLKPGALSNSESIPTIDGLRH [S236Y S236Y], the mutation enrichment score in test [1] (number of wild-type / mutant comparisons summed (bounds the score): 18, paper call: diminished) was -8.7; in [2] it was -2.

As to IQPSDCHTTVRPAKPPVVDRFLKPGALSNSESIPTIDGLRH [S236F S236F], the mutation enrichment score in [1] (number of wild-type / mutant comparisons summed (bounds the score): 18, paper call: no_effect) was -1.1; in test [2], -0.42.

Regarding SGRMTFALCCYSLTFMRFAYEVQPRNWLLFACHATNEVAQL [K72E K72E], the mutation enrichment score with GGA3_VHS__Q9NZ52_1_166 (setting [8]) turned out to be 2.

Turning to DKELQTASIFGSAKASQEADSVLILQDRKLVTGPGKRYLQV [N585S N585S], the mutation enrichment score in the test with GGA1_VHS__Q9UJY5_1_157 (number of wild-type / mutant comparisons summed (bounds the score): 15, paper call: enhanced) is 7.5.

Take TEDKTDISSGRARQQDEEMLQLPAPAEVAAKNQSLEGDTTK [E433Q E433Q]: the mutation enrichment score with GGA1_VHS__Q9UJY5_1_157 (setting [9]) came to 7; with GGA3_VHS__Q9NZ52_1_166 (number of wild-type / mutant comparisons summed (bounds the score): 6, paper call: enhanced), 6.

Take NAIENMVGPDWKKRWLYWKNWTQEQCVHNETKNELEKMLKC [R781W R781W]: the mutation enrichment score with IRS2_PTB__Q9Y4H2_188_304 (setting [7]) is -1.

Turning to ERQMDDLEGAAPPIPPRLHSKDKRKTPLKVLEEWKTHLIPS [E739K E739K], the mutation enrichment score in test [3] was -4.9; in test [4], -4.9; in test [5], -4.4; with SNX9_SH3_1_Q9Y5X1_3_61 it was -4.4; with Src_SH3__P12931_87_144, -4.7.

For the molecule EDGPIVKLASNLGVEDVNLLRGEELSYPNVFLVFLNGNILG [C527R C527R], the mutation enrichment score with GGA1_VHS__Q9UJY5_1_157 (setting [9]) is 10.

On to DKAPEPRPEPVRASKPAPPPEALQTLALPLTPYAQIIQSLQ [Q2233E Q2233E], for which the mutation enrichment score was 5.3 in [1] (setting [8]) and -3.4 with PIK3R1_SH3_1_P27986_6_78 (paper call: no_effect).

DKAPEPRPEPVRASKPAPPPKALQTLALPLTPYAQIIQSLQ [Q2233K Q2233K]: the values for the mutation enrichment score (in [1] (setting [8]); with PIK3R1_SH3_1_P27986_6_78 (paper call: diminished)) were -5 and -7, respectively.

Take RHGDLNRFLRSHGPDAKLLAVGEDVAPGPLGLGQLLAVASQ [G613V G613V]: in the test with GGA1_VHS__Q9UJY5_1_157 (setting [9]), the mutation enrichment score turned out to be 9.3.

IKYNEEKRHVDQPIDYSLKYPTDIPSSQKQSFSFSKSSSGQ [A1184P A1184P]: in [1] (setting [8]), the mutation enrichment score came out at 4.

Consider NDSDDSISAATNKGRGRGRGQRGGRGQNSASRGGSQRGRAD [R576Q R576Q], for which the values for the mutation enrichment score with IRS2_PTB__Q9Y4H2_188_304 (setting [7]) and in the test with REPS1___Q96D71_226_314 were -1 and -4, respectively.

As for NDSDDSISAATNKGRGRGRGGRGGRGQNSASRGGSQRGRAD [R576G R576G], the mutation enrichment score with IRS2_PTB__Q9Y4H2_188_304 (number of wild-type / mutant comparisons summed (bounds the score): 12) is 0; with REPS1___Q96D71_226_314, -4.

On to NMVGPDWKKRWLYWKNRTQERCVHNETKNELEKMLKCNEEH [Q785R Q785R], for which the mutation enrichment score with IRS2_PTB__Q9Y4H2_188_304 (setting [7]) is -1.

On to ALYFSLVAKRLHPDEDDTLVDSPAVTPVSARVPRVRPPHGF [E3632D E3632D], for which the values for the mutation enrichment score (with GGA1_VHS__Q9UJY5_1_157 (setting [9]); in test [6]) were 6 and -6, respectively.

For KVAAYDKLEKTKTRLQQELDYLLVDLDHQRQSACNLEKKQK [D1424Y D1424Y], the mutation enrichment score in the test with GGA1_VHS__Q9UJY5_1_157 (number of wild-type / mutant comparisons summed (bounds the score): 10, paper call: diminished) was -10; in the test with GGA3_VHS__Q9NZ52_1_166 (number of wild-type / mutant comparisons summed (bounds the score): 12, paper call: diminished), -8.
